Experimental findings from a collection of fitness landscapes (doi:10.1126/science.1257360) are described below.

The chains are these.
B1: PhoQ; a variant is named by its letters at X, in order, P23837 (parent)
chain: MKKLLRLFFPLSLRVRFLLATAAVVLVLSLAYGMVALIGYSVSFDKTTFRLLRGESNLFYTLAKWENNKLHVELPENIDKQSPTMTLIYDENGQLLWAQRDVPWLMKMIQPDWLKSNGFHEIEADVNDTSLLLSGDHSIQQQLQEVREDDDDAEMTHSVAVNVYPATSRMPKLTIVVVDTIPVELKSSYMVWSWFIYVLSANLLLVIPLLWVAAWWSLRPIEALAKEVRELEEHNRELLNPATTRELTSLVRNLNRLLKSERERYDKYRTTLTDLTHSLKTPLXXLQXXLRSLRSEKMSVSDAEPVMLEQISRISQQIGYYLHRASMRGGTLLSRELHPVAPLLDNLTSALNKVYQRKGVNISLDISPEISFVGEQNDFVEVMGNVLDNACKYCLEFVEISARQTDEHLYIVVEDDGPGIPLSKREVIFDRGQRVDTLRPGQGVGLAVAREITEQYEGKIVAGESMLGGARMEVIFGRQHSAPKDE

The list shows a part of the results.

Variants of B1 are the subject of the experiment. Nature of the experiment: enrichment ratio after two sorts for PhoP signalling (ratio (wild type AVST 3.29)); higher = more functional. The following applies: with PhoP (E. coli).
As for ITTC, the enrichment ratio was at most 0.25. Next, MMSS: at most 0.25; EYVV: at most 0.25; VELK: at most 0.25. Next, AEWG: 0.38. The same measure for FVSD: at most 0.25; for WNSH: at most 0.25.

GGIH: the enrichment ratio is at most 0.25.

Regarding YSWY, the enrichment ratio was at most 0.25. Next, QVKS: at most 0.25; WMSK: at most 0.25. Next, FSCY: at most 0.25; FAIW: at most 0.25; IIGP: at most 0.25.

As to HWCW, the enrichment ratio is at most 0.25. As to HDRI, the enrichment ratio is at most 0.25. The same measure for TTTD: at most 0.25. The same measure for AKPD: at most 0.25; for TDIV: 2.94. Next, WMMI: at most 0.25; GWRV: at most 0.25. As for MVVM, the enrichment ratio was at most 0.25. The same measure for HKLQ: at most 0.25. Next, RMVI: at most 0.25; MCGC: at most 0.25. Next, MIGL: 1.45; EYMG: at most 0.25.

Turning to PMRN, the enrichment ratio was at most 0.25. The same measure for WWGC: at most 0.25.

For GYAP, the enrichment ratio was at most 0.25.

YSPF: the enrichment ratio is at most 0.25. Next, FPAS: at most 0.25.

With ESDP, the enrichment ratio is at most 0.25.

Take SQPV: the enrichment ratio was at most 0.25. Next, NTLA: at most 0.25. Next, PDYC: at most 0.25. The same measure for ILQI: at most 0.25; for HEDT: at most 0.25; for RYYC: at most 0.25.

On to VAEY, for which the enrichment ratio was at most 0.25.

With PNQG, the enrichment ratio was at most 0.25. The same measure for KFAN: at most 0.25; for TLQI: 14.7; for PANG: at most 0.25.

Take LRAM: the enrichment ratio is at most 0.25. Take KQPN: the enrichment ratio was at most 0.25. Next, EPYH: at most 0.25; KIVV: at most 0.25; FMAY: at most 0.25. The same measure for EEPK: at most 0.25; for MFIT: at most 0.25. Next, YPEV: at most 0.25; QRSC: at most 0.25. For the variant SGKL, the enrichment ratio is at most 0.25.

Turning to QGHH, the enrichment ratio stood at 6.17. Next, FVML: 13.2; YMSM: at most 0.25; RFPD: at most 0.25. The same measure for LKDD: at most 0.25; for IKHD: at most 0.25. The same measure for FRSH: at most 0.25. With SDWG, the enrichment ratio is at most 0.25.

HPII: the enrichment ratio was at most 0.25.

Turning to KLYW, the enrichment ratio is at most 0.25.

As to NGDG, the enrichment ratio was at most 0.25. Next, KYRS: at most 0.25; IWNC: at most 0.25; PNLQ: 1.01.

In the case of YTRQ, the enrichment ratio is at most 0.25.

Turning to MKHK, the enrichment ratio is at most 0.25.

With DCHE, the enrichment ratio is at most 0.25. Next, TVDV: at most 0.25; EREM: at most 0.25. Take GLVK: the enrichment ratio was at most 0.25. The same measure for IFYW: at most 0.25; for YAQA: at most 0.25.

For the variant RHQW, the enrichment ratio was at most 0.25. The same measure for RCDC: at most 0.25. Next, PYTR: at most 0.25. The same measure for VPMV: at most 0.25; for FLGW: at most 0.25. Regarding SGVV, the enrichment ratio is 10.1. Next, FWED: at most 0.25; RFLF: at most 0.25. The same measure for ELGP: at most 0.25; for GGHD: at most 0.25; for QERV: at most 0.25.

Turning to KYSM, the enrichment ratio is at most 0.25. With KLGP, the enrichment ratio was at most 0.25. The same measure for THPC: at most 0.25; for AIHD: at most 0.25. For PDSN, the enrichment ratio was at most 0.25.

Consider FRDW, for which the enrichment ratio is at most 0.25.

Take VQTI: the enrichment ratio was at most 0.25. The same measure for LECR: 0.789; for HQAH: at most 0.25.

SAYN: the enrichment ratio is at most 0.25.

Turning to DCEH, the enrichment ratio was at most 0.25. Next, SYRS: at most 0.25; SCFD: at most 0.25; WYGK: at most 0.25.

As to FTRM, the enrichment ratio is at most 0.25.

Regarding YCFI, the enrichment ratio is at most 0.25. On to QFFR, for which the enrichment ratio is at most 0.25.

In the case of RSFL, the enrichment ratio is at most 0.25.

For the variant VIQP, the enrichment ratio is at most 0.25. For AEVI, the enrichment ratio is 17.5. Next, RVSV: at most 0.25; LCSD: at most 0.25; HNVW: at most 0.25. As for FRMN, the enrichment ratio is at most 0.25. As to EYSK, the enrichment ratio is at most 0.25.

With IVCT, the enrichment ratio was at most 0.25. Next, TEAQ: 28; LDHG: at most 0.25; ECTH: at most 0.25. The same measure for TEQH: 3.62. As to SLGQ, the enrichment ratio is at most 0.25. Next, ISNE: at most 0.25; ELYT: at most 0.25; QDSD: at most 0.25. Next, LSMS: 0.457; YGQE: at most 0.25. As to HSDY, the enrichment ratio was at most 0.25.

With GEWS, the enrichment ratio is at most 0.25. For the variant YPIM, the enrichment ratio was at most 0.25.

With AIWN, the enrichment ratio was at most 0.25. The same measure for FSDG: at most 0.25; for YYAM: at most 0.25. Consider ELIV, for which the enrichment ratio is at most 0.25. The same measure for DEMS: at most 0.25; for APVG: at most 0.25; for DGSG: at most 0.25. With RIIT, the enrichment ratio is at most 0.25. Next, PRQC: at most 0.25; HEHY: at most 0.25; HWVG: at most 0.25. For RMQP, the enrichment ratio was at most 0.25. The same measure for NFCF: at most 0.25; for HDGS: at most 0.25; for QCYP: at most 0.25. The same measure for IEEI: at most 0.25. Next, MMFA: at most 0.25; QKVV: at most 0.25; ASYL: 3.41. Turning to TKHV, the enrichment ratio was at most 0.25. Next, WGDF: at most 0.25.

GQSW: the enrichment ratio is at most 0.25.

In the case of AFNR, the enrichment ratio is at most 0.25.

On to QGIM, for which the enrichment ratio was at most 0.25. Next, DPNK: at most 0.25. The same measure for FYVQ: at most 0.25. Next, YSFL: 1.05.
